According to article PMC6322271:
Residue numbers refer to the chain shown, from its start. Results are given in words; binding and its absence hold for the method and conditions named. In cells and extracts the contact can be indirect. Some results given as binding are weak or reduced against the parent protein; the word gives no strength. For part of these data: Where a sequence is shown, tags or fusion partners need not be part of it. Each block holds one molecule with its values, some of them ahead of it.

Protein sequences, listed by entry. Tags and fused reporters are not part of them.
UniProt P63279: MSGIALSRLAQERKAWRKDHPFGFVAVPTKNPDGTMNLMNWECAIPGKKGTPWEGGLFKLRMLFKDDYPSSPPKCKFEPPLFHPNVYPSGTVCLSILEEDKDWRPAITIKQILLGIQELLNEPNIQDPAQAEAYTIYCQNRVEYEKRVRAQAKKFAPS
UniProt Q92769: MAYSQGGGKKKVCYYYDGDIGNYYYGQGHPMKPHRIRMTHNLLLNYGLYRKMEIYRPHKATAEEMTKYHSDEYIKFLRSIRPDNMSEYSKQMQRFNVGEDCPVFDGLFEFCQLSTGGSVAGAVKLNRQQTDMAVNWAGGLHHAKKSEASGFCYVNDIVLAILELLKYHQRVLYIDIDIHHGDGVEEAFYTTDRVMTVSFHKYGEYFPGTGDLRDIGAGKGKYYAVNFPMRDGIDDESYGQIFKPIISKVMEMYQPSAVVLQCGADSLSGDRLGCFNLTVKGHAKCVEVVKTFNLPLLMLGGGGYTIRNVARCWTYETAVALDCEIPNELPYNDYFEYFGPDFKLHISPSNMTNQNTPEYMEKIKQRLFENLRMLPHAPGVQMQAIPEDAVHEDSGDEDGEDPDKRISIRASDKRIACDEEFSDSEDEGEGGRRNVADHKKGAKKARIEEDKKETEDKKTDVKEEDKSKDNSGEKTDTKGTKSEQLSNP
UniProt Q13547: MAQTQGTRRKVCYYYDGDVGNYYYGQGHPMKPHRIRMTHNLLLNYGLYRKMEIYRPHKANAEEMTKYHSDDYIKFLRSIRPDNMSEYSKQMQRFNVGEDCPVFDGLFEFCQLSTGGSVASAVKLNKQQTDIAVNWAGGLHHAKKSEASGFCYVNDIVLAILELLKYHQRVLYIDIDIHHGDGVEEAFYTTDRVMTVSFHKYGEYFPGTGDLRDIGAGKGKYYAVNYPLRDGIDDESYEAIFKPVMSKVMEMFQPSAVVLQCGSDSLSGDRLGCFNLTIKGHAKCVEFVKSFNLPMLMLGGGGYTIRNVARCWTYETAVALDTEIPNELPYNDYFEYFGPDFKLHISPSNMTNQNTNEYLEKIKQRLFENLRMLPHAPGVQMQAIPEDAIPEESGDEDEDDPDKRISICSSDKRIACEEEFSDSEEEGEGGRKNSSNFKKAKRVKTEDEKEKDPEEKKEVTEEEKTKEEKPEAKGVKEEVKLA

What was measured:
[1] = target: T1, 3xFlag–Slug 1–268 (human) (UniProt O43623); assay: co-IP; cytosolic and chromatin-bound fractions of HEK293T cells co-expressing 3xFlag-labelled Slug and HA–Ubc9; immunoprecipitated with anti-Flag antibodies
T1 sequence: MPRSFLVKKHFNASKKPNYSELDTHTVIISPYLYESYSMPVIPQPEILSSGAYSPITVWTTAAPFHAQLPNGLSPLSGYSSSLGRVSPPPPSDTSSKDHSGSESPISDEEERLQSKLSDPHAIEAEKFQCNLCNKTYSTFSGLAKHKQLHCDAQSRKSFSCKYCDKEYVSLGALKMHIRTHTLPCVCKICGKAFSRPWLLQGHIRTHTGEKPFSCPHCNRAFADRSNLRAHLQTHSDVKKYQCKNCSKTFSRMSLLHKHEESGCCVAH

[2] = target: T2, Slug5M (Slug5M-overexpressing HEK293 cells) (human) (UniProt O43623); assay: co-IP; nuclear fractions (hypotonic buffer) of Slug- and Slug5M-overexpressing HEK293 cells; immunoprecipitation with an anti-Slug antibody, immunoblotting
T2 sequence: T1 sequence with K239R, K240R, K244R, K248R, K258R

[3] = target: T3, wild-type Slug (Slug-overexpressing HEK293 cells) (human) (UniProt O43623); assay: as above
T3 sequence: T1 sequence

[4] = target: T4, wild-type Slug (Fig. 4e, HEK293T) (human) (UniProt O43623); assay: co-IP; lysates of HEK293T cells cotransfected with the indicated plasmids (with or without Ubc9 and SUMO-1); immunoprecipitation with an anti-HA antibody
T4 sequence: T1 sequence

[5] = target: T5, Slug5M (Fig. 4e, HEK293T) (human) (UniProt O43623); assay: as above
T5 sequence: T1 sequence with K239R, K240R, K244R, K248R, K258R

[6] = target: T6, Slug (endogenous, CL1–5 cells) (human (endogenous in CL1–5)) (UniProt O43623); assay: co-IP; endogenous immunoprecipitation; CL1–5 cell lysate treated with 1% formaldehyde; cross-linked Slug complexes immunoblotted
T6 sequence: T1 sequence

[7] = target: T7, Slug (transfected in HEK293T, Fig. 1b and c) (human) (UniProt O43623); assay: co-IP; exogenous immunoprecipitation from lysates of HEK293T cells transfected with the indicated plasmids (Fig. 1b, c); RIPA lysis buffer; also under normoxia or hypoxia (1% O2, 4 h; Fig. S10a, anti-Flag)
T7 sequence: T1 sequence

GST–Ubc9 = GST–Ubc9 (UniProt P63279); assay: pull-down; GST–Ubc9 from bacteria coupled to beads, incubated with in vitro-translated Slug fragments; washed with buffer D (20 mM HEPES pH 8.0, 20% glycerol, 0.2 mM EDTA, 100 mM KCl, 0.5 mM PMSF, 0.5 mM DTT); only the target purified
[8] = target: T8, 3xFlag–Slug 1–129 (human) (UniProt O43623); assay: co-IP; HEK293T cells co-transfected; immunoprecipitation with anti-Flag antibodies, immunoblotting; RIPA lysis buffer; in Fig. 5f and S10b cells under normoxia or hypoxia (1% O2, 4 h)
T8 sequence: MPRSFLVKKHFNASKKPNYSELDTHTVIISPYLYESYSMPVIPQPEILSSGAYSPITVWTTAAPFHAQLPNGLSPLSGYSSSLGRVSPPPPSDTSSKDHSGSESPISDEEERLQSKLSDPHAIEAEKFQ

[9] = target: T9, 3xFlag–Slug 33–268 (human) (UniProt O43623); assay: as above
T9 sequence: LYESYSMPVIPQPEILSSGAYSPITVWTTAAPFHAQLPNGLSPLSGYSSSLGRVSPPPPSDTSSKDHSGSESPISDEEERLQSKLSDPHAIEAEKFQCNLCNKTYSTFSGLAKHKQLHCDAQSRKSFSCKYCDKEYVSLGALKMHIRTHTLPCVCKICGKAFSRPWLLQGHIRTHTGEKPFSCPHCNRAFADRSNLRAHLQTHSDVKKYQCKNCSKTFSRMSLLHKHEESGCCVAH

[10] = target: T10, 3xFlag–Slug 130–268 (human) (UniProt O43623); assay: as above
T10 sequence: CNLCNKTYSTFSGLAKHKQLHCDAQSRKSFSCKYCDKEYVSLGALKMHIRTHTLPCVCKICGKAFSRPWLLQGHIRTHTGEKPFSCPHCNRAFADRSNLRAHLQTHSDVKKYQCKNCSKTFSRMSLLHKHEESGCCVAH

[11] = target: T11, 3xFlag–Slug 67–268 (human) (UniProt O43623); assay: as above
T11 sequence: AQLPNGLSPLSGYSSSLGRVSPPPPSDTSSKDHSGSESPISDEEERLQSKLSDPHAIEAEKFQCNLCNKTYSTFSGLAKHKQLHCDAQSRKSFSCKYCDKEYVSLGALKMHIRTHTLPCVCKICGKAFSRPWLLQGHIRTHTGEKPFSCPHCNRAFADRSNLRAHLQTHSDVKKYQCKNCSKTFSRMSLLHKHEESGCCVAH

[12] = target: T1, 3xFlag–Slug 1–268 (human); assay: as above
GST–Slug (human) = target: T12, GST–Slug (human) (UniProt O43623); assay: pull-down; GST–Slug or GST from bacteria on beads, incubated with in vitro-translated HA-tagged PIAS proteins; anti-HA immunoblot; for PIASy also in the presence or absence of Ubc9 (Fig. 3d); only the target purified
T12 sequence: T1 sequence

binding [1]: binds
Molecule: HA–Ubc9 (HEK293T) (from UniProt P63279 1-158)

binding [2]: binds | binding [3]: binds
Molecule: HDAC2 (endogenous, HEK293) (from UniProt Q92769 1-488)

binding [4]: binds | binding [5]: binds
Molecule: HDAC1 (Fig. 4e, HEK293T) (from UniProt Q13547 1-482)

binding [6]: binds
Molecule: Ubc9 (endogenous, CL1–5 cells) (from UniProt P63279 1-158)

binding [7]: binds
Molecule: Ubc9 (transfected in HEK293T, Fig. 1b and c) (from UniProt P63279 1-158)

binding [2]: binds | binding [3]: binds
Molecule: HDAC1 (endogenous, HEK293) (from UniProt Q13547 1-482)

binding (GST–Ubc9): binds
B1: Slug 1–268 (full-length), in vitro translated (protein, UniProt O43623 1-268)
chain: T1 sequence

binding (GST–Ubc9): binds
B2: Slug 130–212, in vitro translated (domain or fragment, UniProt O43623 130-212)
chain: CNLCNKTYSTFSGLAKHKQLHCDAQSRKSFSCKYCDKEYVSLGALKMHIRTHTLPCVCKICGKAFSRPWLLQGHIRTHTGEKP

binding [8]: binds | binding [9]: binds | binding [10]: no binding | binding [11]: binds | binding [12]: binds
B3: HA–PIASy (HEK293T) (protein, UniProt Q8N2W9 1-510)
chain: MAAELVEAKNMVMSFRVSDLQMLLGFVGRSKSGLKHELVTRALQLVQFDCSPELFKKIKELYETRYAKKNSEPAPQPHRPLDPLTMHSTYDRAGAVPRTPLAGPNIDYPVLYGKYLNGLGRLPAKTLKPEVRLVKLPFFNMLDELLKPTELVPQNNEKLQESPCIFALTPRQVELIRNSRELQPGVKAVQVVLRICYSDTSCPQEDQYPPNIAVKVNHSYCSVPGYYPSNKPGVEPKRPCRPINLTHLMYLSSATNRITVTWGNYGKSYSVALYLVRQLTSSELLQRLKTIGVKHPELCKALVKEKLRLDPDSEIATTGVRVSLICPLVKMRLSVPCRAETCAHLQCFDAVFYLQMNEKKPTWMCPVCDKPAPYDQLIIDGLLSKILSECEDADEIEYLVDGSWCPIRAEKERSCSPQGAILVLGPSDANGLLPAPSVNGSGALGSTGGGGPVGSMENGKPGADVVDLTLDSSSSSEDEEEEEEEEEDEDEEGPRPKRRCPFQKGLVPAC

binding (GST–Slug (human)): binds
B4: HA-tagged PIASy, in vitro translated (protein, UniProt Q8N2W9 1-510)
chain: B3 chain

binding (GST–Ubc9): no binding
B5: Slug 1–129, in vitro translated (domain or fragment, UniProt O43623 1-129)
chain: T8 sequence

binding (GST–Ubc9): binds
B6: Slug 130–268, in vitro translated (domain or fragment, UniProt O43623 130-268)
chain: T10 sequence

binding (GST–Ubc9): binds
B7: Slug 33–268, in vitro translated (domain or fragment, UniProt O43623 33-268)
chain: T9 sequence

binding (GST–Ubc9): no binding
B8: Slug 213–268, in vitro translated (domain or fragment, UniProt O43623 213-268)
chain: FSCPHCNRAFADRSNLRAHLQTHSDVKKYQCKNCSKTFSRMSLLHKHEESGCCVAH
